In the supplement of paper PMC3334620:
Over roughly 33,000 sequences, “E-score (-0.5 to 0.5)” has its median near -0.016; the highest 2% begin near 0.32. The list shows a part of the results.

target: T1, Stp1 (UniProt B3LFK1); assay: PBM E-score (8-mer binding enrichment) (E-score (-0.5 to 0.5)); higher = stronger / more preferred TF binding; most listed sequences are background and not binding sites; details: protein concentration: 200 nM; construct: GST-full length
T1 sequence: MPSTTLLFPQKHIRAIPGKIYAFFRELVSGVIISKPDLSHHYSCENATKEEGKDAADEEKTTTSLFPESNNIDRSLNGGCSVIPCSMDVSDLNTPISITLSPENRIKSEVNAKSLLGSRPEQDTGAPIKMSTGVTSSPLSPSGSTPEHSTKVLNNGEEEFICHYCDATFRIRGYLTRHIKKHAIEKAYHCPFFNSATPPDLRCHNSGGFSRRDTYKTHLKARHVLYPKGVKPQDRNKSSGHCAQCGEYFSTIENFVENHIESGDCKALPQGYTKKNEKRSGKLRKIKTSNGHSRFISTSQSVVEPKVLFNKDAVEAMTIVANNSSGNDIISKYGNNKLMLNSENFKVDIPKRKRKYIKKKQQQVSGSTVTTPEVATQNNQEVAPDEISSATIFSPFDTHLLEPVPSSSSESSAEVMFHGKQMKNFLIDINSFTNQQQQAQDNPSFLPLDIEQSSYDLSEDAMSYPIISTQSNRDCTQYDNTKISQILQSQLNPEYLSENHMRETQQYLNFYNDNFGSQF
Procedure, shortened: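 Using PURExpress in vitro transcription/translation, GST-tagged yeast transcription factors were made in full-length or DNA-binding-domain form. These were applied at about 100-200 nM to double-stranded universal all-10-mer Agilent arrays, and bound protein was detected with fluorescent anti-GST. Scans were normalised with masliner before the Universal PBM Analysis Suite assigned E-scores to ungapped eight-base words pooled with their reverse complements.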

Sequence	PBM E-score
CTTACGGC	0.301
CTGGCGCA	-0.0136
GCTTTGCA	-0.22
AGAACGAG	-0.0161
TCCAGGCA	0.0486
CGATGTCA	-0.158
ACGTCTCT	-0.0532
AACGCTAG	-0.086
CCATCATC	-0.139
AAATATCT	0.0537
CAGCATGA	-0.212
ACCGGGTA	-0.0938
GTCCCGAA	-0.215
AAGACACA	-0.0162
CTAGGCTC	-0.0833
ACCGCGTG	0.0896
CGTCCAAC	-0.0455
GCTCACAA	0.21
ATATATAT	0.303
ATATCAAC	0.143
CTTTTCTC	0.0401
ACTCTAGC	-0.125
CTGTGTCC	-0.0348
AATCATAC	0.00023
AACACGCT	-0.0712

Sequence	PBM E-score
ACCGTCTA	-0.0765
AAAGTCGA	-0.15
GAGCACGC	-0.169
CTCTGATA	-0.0258
CGCGCAGC	0.0787
CCTATTCG	-0.133
TAGCCCTA	-0.0402
AAGATCAG	-0.0311
ACTCGGTA	-0.189
GGCTCTCA	0.0688
CATACTTA	-0.00908
AGTGATTA	0.249
AATCTGAC	0.0257
CCCTCCGA	-0.355
CCTGGTCC	-0.268
TAATGAGA	-0.0848
CAAGTCTA	-0.124
TAGGGCGA	0.178
ATCCCCAA	-0.0812
CGACTATC	0.00023
ATAGAAAT	0.197
GGATTGCA	-0.0528
AAAGGTGA	-0.0774
CGCGGTTA	0.0151
ACGTTTTG	-0.073

Sequence	PBM E-score
GTCTAAAA	-0.0262
CCGGTGAG	-0.166
GGCGAGCA	-0.111
AGAGAATC	-0.0607
CGAACACA	0.0328
CCGATCGC	-0.16
TCATCGAA	0.0188
AGTATGAT	0.0518
GGGAGATA	-0.214
CGCGTTAA	0.0157
CGGCGACG	0.349
CCTATCCG	-0.149
AATCGTGA	-0.108
CAGGCAGG	-0.244
GCCCGCGC	0.164
AATCGTCA	0.0612
CACCCCTG	-0.289
ACCGTAGG	-0.209
GCTAATAA	-0.0966
AGAAAAGG	0.00586
ATAAACGG	0.305
TACATACA	0.0836
GATGATAC	0.0227
CAATCGGA	-0.0497
CACGTCGG	-0.0436

Sequence	PBM E-score
AGTGTCGG	-0.176
CCTGTACG	-0.026
TTACCAAA	0.16
AGTGGTTC	-0.0543
GATGAGGC	0.177
ATAAAAGC	0.136
CACGCCAA	0.126
ACGTCAGT	-0.171
GACGTATA	-0.0569
GTCGTAAC	-0.0896
AGCCCTTA	-0.283
ACCGATAA	0.0159
CCAGCAGC	-0.12
AGGGTCAA	-0.135
GGTAATAC	0.0176
ATAAGTTA	0.151
GCCTCTAC	-0.209
GAAGCGCA	-0.0259
CCGAGAAA	0.152
ATGCTGCC	0.123
ATACTAAG	-0.0044
CCTTGCCA	0.114
GAATTCCC	-0.184
AGCTCTAC	-0.1
ACTAGCAG	-0.0753

Sequence	PBM E-score
CTGTAGTC	-0.175
CGAATCAA	0.21
CGCGTGCA	0.0968
CAACCATA	0.0787
CTCAGTCC	-0.195
ATGCATAG	-0.138
CGCTAAGA	-0.108
CAGCTATA	-0.0903
GCGTAAGC	0.0483
CCGTGTAG	0.282
GATGAGCC	-0.00449
GGATTCCA	0.143
CACGGGTC	0.157
CGCCCCTC	0.0824
ATCACATA	0.151
CACCATGA	0.00358
CAGATCTA	-0.207
GACGGTAC	-0.0457
ACAACGTC	-0.0284
ATGCAACG	0.0583
AGGTATGA	-0.0385
ATGATAAC	0.044
GGCTTCCA	-0.00202
CATCGCAG	-0.143
GCCGTCCA	0.364

Sequence	PBM E-score
AGACGCTG	-0.186
GGGTGTTA	-0.0258
CCGCTTTA	0.0741
GCCCGAAA	-0.0481
ATAGATTA	0.161
AATTGCTC	-0.187
ACTGATCA	0.0926
ATGACCGC	-0.075
CTTTCCGA	0.0265
CGCGAACA	0.0373
AATGCTCA	-0.0944
CTCCCTAA	-0.142
AGCGAAGG	0.0368
CCGTTATC	-0.0183
ATCGGTGA	0.0718
CACATTCG	0.14
AGTCCACG	0.00627
ATTACCGA	-0.0698
AGATTATC	0.0843
AAATGATG	-0.034
AACGACAA	0.18
GACGGAGC	-0.11
ACAATCAA	0.187
CCCTAGCG	-0.267
CAACAGAC	0.0307

Sequence	PBM E-score
TGACGGCA	0.175
AATGTACT	0.0843
CTAGTCCC	-0.32
CAGAAAAC	0.138
ACGGCTCG	0.444
GTCAACAC	-0.0264
CAGCTGTA	-0.112
TATTCGAA	-0.11
CACCGGTA	-0.0908
GTACGCAC	-0.0915
GAGTCCAA	-0.0353
AATAGAAT	0.115
GGTACACC	-0.164
ATCACTAG	-0.108
CCATCGTC	-0.0307
CACTGGTA	-0.0447
AGCAGGCT	-0.098
CCAGAACG	0.184
ACCGGTCA	-0.132
ATCGCCCG	-0.07
ACTGTCAA	0.0309
ATGGTGCA	-0.0786
